# Test results reported in PubChem BioAssay AID1347071 (National Center for Advancing Translational Sciences (NCATS), 2019).
# The whole screen tested about 410,000 compounds, of which about 260 (0.063%) were called active. This list was built around the results that the source calls inconclusive (neither active nor inactive); the mix of calls is not that of the screen. Calls follow the shape of the dose curve; as a rule, active = well fitted activation curve with a large enough effect; inconclusive = small, poorly fitted or top-dose-only effect; inactive = no such curve, though single readings can be large or run the other way. Potencies of inconclusive entries are left out as doubtful fits.
# Test: qHTS for compounds that reverse cellular toxicity of Amyloid beta (A-beta) peptide in yeast: Primary Screen; also: nearly all actives have a fitted effect of over 55% in size
# Conditions: yeast expressing A-beta42, growth rescue, OD600, 48 h; growth rescue: at 46.1 µM (top of the series), 0% DMSO, 100% iron-clioquinol control
# Summary of the method: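 Yeast A-beta toxicity model in growth medium with pinned compounds, 48 h at 30 C; growth read as absorbance at 600 nm. Normalized to FeCl3/clioquinol equimolar mix (positive) and DMSO (negative).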
# Potency is read from the fitted curve at half-maximal effect; tags tell the direction and shape of the fitted curve.
Compound,Potency,growth rescue
Cc1cc(C)c(S(=O)(=O)NCCc2sc3nc(-c4ccc(F)cc4)nn3c2C)c(C)c1,"inconclusive [activator, single point]",–
CC(C)(CCC(=S)N1CCOCC1)C1CCCCC1,"inconclusive [activator, single point]",–
COc1ccc(NC(=S)N2CCC(C(O)(c3ccccc3)c3ccccc3)CC2)cc1,"inconclusive [activator, single point]",–
CC(C)CCOP(=O)(c1ccc(N(C)C)cc1)C(O)c1ccc(Cl)cc1Cl (centres undefined),"inconclusive [activator, single point]",–
O=S(=O)(NCC(c1cccs1)S(=O)(=O)c1ccccc1)c1ccccc1 (centres undefined),inactive,–
Cc1ccc(N2CN(CCc3ccccc3)CNC2=S)cc1,active: 11.2 µM,–
Oc1ccc(C[C@H]2CN([C@@H](Cc3ccccc3)CN3CCCC3CN3C(=S)NC[C@@H]3Cc3ccccc3)C(=S)N2CC2CCCCC2)cc1 (some centres undefined),inactive,–
Oc1ccccc1/C=N/Nc1nccnc1Cl,"inconclusive [activator, full curve, poor fit]",–
Cc1cnc(NC(=O)C2CCCC2)s1,"inconclusive [activator, partial curve, poor fit]",–
CC1(C)c2[nH]c3ccccc3c2C[C@@H]2C(=O)N(Cc3ccc(F)cc3)C(=O)N21,"inconclusive [activator, single point]",–
O=S(=O)(Nc1ccc(OC(F)F)cc1)c1ccc(-c2ccon2)s1,inactive,–
NC(=O)[C@H](Cc1cc2ccccc2s1)NC(=O)[C@@H]1CC2(CC(c3cccc(NC(=O)[C@@H]4CCC(=O)N4)c3)=NO2)CN1C(=O)/C=C/c1c(F)cccc1Cl (some centres undefined),inactive,–
O=C(Nc1nc2ccccc2s1)C1CC(=O)N(c2ccc(F)cc2)C1 (centres undefined),"inconclusive [activator, partial curve, poor fit]",–
CC(=O)c1sc2nc(-c3ccccc3)cc(C)c2c1N,"inconclusive [activator, full curve]",–
CCN(CC)S(=O)(=O)c1ccc(NC(=O)COC(=O)c2cc(S(=O)(=O)Nc3ccc(OC)cc3)ccc2O)cc1,"inconclusive [activator, single point]",–
O=C(O)CN1C(=O)/C(=C2\C(=O)N(Cc3ccccc3Cl)c3ccccc32)SC1=S,"inconclusive [activator, partial curve, poor fit]",–
O=C(NCCc1csc(-c2ccc(F)cc2)n1)c1c(F)cccc1Cl,inactive,–
Cc1cccc(C)c1Cn1c(C)c(C(=O)NCc2ccc(C#N)cc2)sc1=O,"inconclusive [activator, partial curve, poor fit]",–
COCCCNC(=S)N1CCN(c2nc(-c3ccc(Cl)cc3)cs2)CC1,"inconclusive [activator, partial curve]",–
O=C(NC(=S)NCCSc1ccccc1)c1cccnc1,–,inconclusive: -70.8% [activator]
CCC(Sc1nc2ccccc2c2nc(CCc3c(C)n[nH]c3C)nn12)C(=O)Nc1ccccc1F (centres undefined),inactive,–
COC(=O)c1ccc(/C=N/NC(=O)c2ccccc2Cl)cc1,"inconclusive [activator, full curve, poor fit]",–
N/C(=N\OC(=O)Cc1ccc(Cl)cc1)c1ccccn1,"inconclusive [activator, single point]",–

Compound,Potency,growth rescue
FC(F)(F)c1ccccc1Cc1c(-c2ccc(Cl)cc2)nc2c3ccccc3ccn12,"inconclusive [activator, single point]",–
Cc1ccc(NC(=O)Cn2c(=O)c(CNc3ccccc3)cc3cc4c(cc32)OCCO4)cc1,inactive,–
CCOC(=O)c1c(C)n(C(=O)c2ccco2)c(=O)n1C(=O)c1ccco1,"inconclusive [activator, partial curve, poor fit]",–
Cc1ccc(C(=O)NC(=S)NNC(=O)COc2ccc([N+](=O)[O-])cc2)cc1,"inconclusive [activator, partial curve, poor fit]",–
CCCC(=O)NC(c1ccccc1Cl)c1ccc2cccnc2c1O (centres undefined),"inconclusive [activator, single point]",–
CCOc1ccc2c(c1)C(C)=CC(C)(C)N2S(=O)(=O)c1ccc(C)cc1,"inconclusive [activator, partial curve, poor fit]",–
Cc1ccc(CN=c2c([N+](=O)[O-])nn(-c3ccc(Cl)cc3)n2O)cc1,"inconclusive [activator, single point]",–
Cc1c(C(=O)N2CCCC2)sc(NC(=O)c2ccco2)c1C#N,"inconclusive [activator, full curve, poor fit]",–
O=C(CN1CCCC1)Nc1ccccc1Sc1ccccc1,inactive,–
CC(C)(C)c1ccc2c(c1)OC(C(=O)N/N=C\c1ccc[nH]1)CO2 (centres undefined),"inconclusive [activator, partial curve, poor fit]",–
Cc1ccccc1NC(=O)c1ccc(F)c(S(=O)(=O)N(C)C2CCCCC2)c1,"inconclusive [activator, partial curve, poor fit]",–
COc1cc(F)ccc1-c1csc(C(O)c2ccc(F)cc2)n1 (centres undefined),"inconclusive [activator, single point]",–
COc1ccc(NC(=O)C2CCCN(S(=O)(=O)c3cccs3)C2)cc1 (centres undefined),inactive,–
COc1ccc(Cn2ccc3nc(C)c(C(=O)Nc4ccc(OC(F)(F)F)cc4)cc3c2=O)cc1,inactive,–
O=C(Oc1cccc(-n2cnnn2)c1)c1ccco1,"inconclusive [activator, single point]",–
O=C(NCCSc1ncc(-c2ccccc2)[nH]1)c1ccco1,"inconclusive [activator, full curve]",–
CN1OC[C@@H]2CN(Cc3cc(Cl)cc(Cl)c3)[C@H](c3cccc(-c4ccccc4)c3)C[C@@H]21,"inconclusive [activator, single point]",–
OC(C1=CC(=Cc2ccncc2)c2ccccc21)c1ccncc1 (centres undefined),"inconclusive [activator, partial curve, poor fit]",–
CCc1nc(N2CCN(C(=O)CCl)CC2)c2c3c(sc2n1)CC(C)CC3 (centres undefined),"inconclusive [activator, partial curve, poor fit]",–
Cc1ccc(CSCCNC(=O)CCSc2ccccc2)cc1,inactive,–
COCCCNc1ccn2nc(-c3cccc(OCc4ccccc4)c3)cc2n1,inactive,–
CCc1cc[n+](-c2nc3ccccc3nc2C(=C=[N-])C#N)cc1,"inconclusive [activator, full curve, poor fit]",–
CCCCC(=O)Oc1c(S(=O)(=O)c2ccccc2)c(C)nn1C(C)(C)C,"inconclusive [activator, single point]",–

Compound,Potency,growth rescue
c1ccc(-c2ccc(-c3nc(-c4ccccn4)no3)cc2)cc1,inactive,–
CCNC(=S)N/N=C/c1ccco1,"inconclusive [activator, single point]",–
CCOC(=O)C1=C(C)NC(C)=C(C(=O)OCC)C1c1ccc(O)cc1,inactive,–
Nc1ccc2nc(CN3CCOCC3)[nH]c2c1,inactive,–
COc1cccc(CNc2nc(C(F)(F)F)nc3ccccc23)c1,"inconclusive [activator, single point]",–
Cc1ccc(NC(=O)CSCc2c(C)noc2C)cc1C,inactive,–
CC(C)(CCl)C(=O)Nc1ccc(OC(F)(F)F)cc1,"inconclusive [activator, partial curve, poor fit]",–
Cc1ccc(-c2nc3c4ccccc4ccn3c2Cc2ccccc2C(F)(F)F)cc1,"inconclusive [activator, single point]",–
COc1cccc(CN(C)C(=O)CN2C(=O)NC(c3ccccc3)(c3ccccc3)C2=O)c1,"inconclusive [activator, partial curve, poor fit]",–
O=C(NC(=S)Nc1ccc(F)cc1)C1CCCCC1,active: 5.01 µM,–
Nc1cc(C(=O)O)ccc1Nc1ccccc1,inactive,–
Cc1nn(Cc2c(Cl)cccc2Cl)c(C)c1NC(=O)c1cc(C(C)C)on1,inactive,–
NNC(=S)NC1CC2CC1C1C=CCC21 (centres undefined),"inconclusive [activator, partial curve]",–
O=C(CSc1nc2c([nH]c3ccccc32)c(=O)n1-c1ccc(F)cc1)NC1CCCCC1,inactive,–
CCCNC(=S)N1CCN(c2nc(-c3ccc(C)cc3)cs2)CC1,"inconclusive [activator, single point]",–
O=C(CSC1=Nc2ccccc2C2=NC(Cc3ccccc3)C(=O)N12)Nc1ccccc1C(F)(F)F (centres undefined),inactive,–
CCCCCC(=O)NC(=S)Nc1ccc(Br)cc1C,inactive,–
Cc1ccc2nc(-c3c[nH]c4ccccc34)c(Nc3ccccc3C)n2c1,"inconclusive [activator, partial curve]",–
Cc1cc(Nc2ccccc2C)nc(-n2nc(C)cc2C)n1,"inconclusive [activator, partial curve, poor fit]",–
CC(=O)c1c(C)oc2c1C(=O)c1ccccc1C2=O,inactive,–
Cc1cc(Cl)ccc1OCC(=O)NNC(=O)c1cnccn1,"inconclusive [activator, single point]",–
NC(=S)N/N=C/c1ccc(-c2ccccc2)o1,"inconclusive [activator, partial curve, poor fit]",–
O=C(CN1CCSc2ccccc21)NCc1ccccc1F,inactive,–
